Experimental data as given in the supplement of paper PMC9446081.
Screen size: about 39,000 compounds; about 220 (0.56%) showed activity. The list shows a part of the results.

The molecules below were run on Escherichia coli K-12 BW25113 (assay: relative growth (OD600 normalised to plate interquartile mean) (fraction); higher = less growth inhibition, active = 0.2 or less). Settings: 50 µM; LB; incubation time: overnight (16-24 h).
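Further: static incubation at 37 °C against the wild-type strain, values averaged over two biological replicates.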

| Structure (SMILES) | relative growth |
| --- | --- |
| Cc1noc(C)c1NC(=O)N(C)C[C@H]1Oc2c(NC(=O)Nc3ccc(C(F)(F)F)cc3)cccc2C(=O)N([C@H](C)CO)C[C@@H]1C | inactive: 0.985 |
| Cn1cnc(S(=O)(=O)N2C[C@@H](O)COC[C@@H]3O[C@@H](CC(=O)NCc4cccc(F)c4)CC[C@H]32)c1 | inactive: 0.982 |
| NC[C@@H](O)COc1ccc2c(c1)OCO2 | inactive: 0.972 |
| C[C@H](CO)N1C[C@H](C)[C@H](CN(C)Cc2ccncc2)Oc2cc(C#CCN(C)C)ccc2S1(=O)=O | inactive: 1 |
| FC(F)Oc1cccc2cccnc12 | inactive: 0.965 |
| Cc1ccc(S(=O)(=O)Nc2ccc3c(c2)C(=O)N([C@@H](C)CO)C[C@H](C)[C@@H](CN(C)C(=O)Nc2c(C)noc2C)OCCCC[C@H](C)O3)cc1 | inactive: 1.01 |
| O=S1(=O)OC(c2ccc(O)cc2)(c2ccc(O)cc2)c2ccccc21 | inactive: 0.928 |
| C[C@H](NC(=O)C[C@H]1CC[C@@H](NC(=O)CN2CCOCC2)[C@H](CO)O1)c1ccccc1 | inactive: 0.976 |
| Cc1noc(C)c1NC(=O)N(C)C[C@@H]1Oc2ccc(NS(=O)(=O)c3ccccc3)cc2CC(=O)N([C@@H](C)CO)C[C@@H]1C | inactive: 0.993 |
| C[C@@H]1CCCCO[C@@H](CN(C)Cc2ccc(Cl)c(Cl)c2)[C@@H](C)CN([C@@H](C)CO)C(=O)c2cc(NS(=O)(=O)c3ccc(Cl)cc3)ccc2O1 | inactive: 0.997 |
| C=CC[C@@H](CC(=O)N[C@@H](CO)Cc1ccccc1)C(=O)N[C@H](C)COC(=O)[C@H](CC=C)CC(=O)OC(C)(C)C | inactive: 1 |
| C[C@@H]1CN([C@H](C)CO)C(=O)Cc2cc(NC(=O)CCCN(C)C)ccc2O[C@H]1CN(C)Cc1ccc(Oc2ccccc2)cc1 | inactive: 0.997 |
| COc1ccccc1C#Cc1ccc2c(c1)O[C@H](CN(C)Cc1ccncc1)[C@H](C)CN([C@@H](C)CO)S2(=O)=O | inactive: 1.02 |
| C[C@@H]1CN([C@H](C)CO)C(=O)c2cc(NC(=O)CCCN(C)C)ccc2O[C@H]1CN(C)S(=O)(=O)c1cccs1 | inactive: 0.827 |
| C[C@@H]1CN([C@H](C)CO)C(=O)c2cccc(NC(=O)C3CCOCC3)c2O[C@@H]1CN(C)Cc1ccc(C(=O)O)cc1 | inactive: 1.01 |
| Cn1cnc(S(=O)(=O)N2C[C@@H](O)COC[C@@H]3O[C@@H](CC(=O)NC4CCCC4)CC[C@H]32)c1 | inactive: 1.02 |
| C[C@@H]1CN([C@H](C)CO)S(=O)(=O)c2ccc(Br)cc2O[C@@H]1CN(C)Cc1ccc(-c2ccccc2)cc1 | inactive: 1.03 |
| Cn1c(=O)n(C)c2cc(S(=O)(=O)N3CC[C@H]4CNC[C@H]43)ccc21 | inactive: 0.987 |
| C#CC1(O)CCC2C3CCC4=C(CCC(=O)C4)C3CCC21C (stereo unspecified) | inactive: 1.15 |
| CC(C)NC(=O)Nc1ccc2c(c1)C(=O)N([C@H](C)CO)C[C@@H](C)[C@H](CN(C)S(=O)(=O)c1ccccc1)O2 | inactive: 0.982 |
| CN(C)CCCNC(=O)C[C@@H]1CC[C@@H]2[C@@H](COc3ccc(NC(=O)c4ccc5c(c4)OCO5)cc3C(=O)N2C)O1 | inactive: 1 |

| Structure (SMILES) | relative growth |
| --- | --- |
| COc1ccc(S(=O)(=O)Nc2ccc3c(c2)C(=O)N([C@@H](C)CO)C[C@@H](C)[C@@H](CN(C)Cc2ccc(C(=O)O)cc2)OCCCC[C@@H](C)O3)cc1 | inactive: 0.881 |
| C[C@@H]1CN([C@H](C)CO)C(=O)c2cc(NC(=O)CCC(F)(F)F)ccc2O[C@H]1CN(C)S(C)(=O)=O | inactive: 0.971 |
| COc1cccc(NC(=O)N(C)C[C@@H]2Oc3cc(C#CC4(O)CCCC4)ccc3S(=O)(=O)N([C@H](C)CO)C[C@@H]2C)c1 | inactive: 1.01 |
| COc1ccc(NC(=O)N(C)C[C@@H]2Oc3cc(C#CCN(C)C)ccc3S(=O)(=O)N([C@@H](C)CO)C[C@@H]2C)cc1 | inactive: 1.02 |
| C[C@H](CO)N1C[C@H](C)[C@@H](CN(C)S(=O)(=O)c2cn(C)cn2)OCCCC[C@H](C)Oc2ccc(NC(=O)Nc3ccc(C(F)(F)F)cc3)cc2C1=O | inactive: 1.03 |
| COCC(=O)Nc1ccc2c(c1)C(=O)N(C)C[C@H](OC)[C@H](C)CN(Cc1ccccc1F)[C@H](C)CO2 | inactive: 0.991 |
| COCC#Cc1ccc2c(c1)O[C@@H](CN(C)S(=O)(=O)c1ccc(C)cc1)[C@H](C)CN([C@@H](C)CO)S2(=O)=O | inactive: 1.01 |
| CC(C)NC(=O)Nc1ccc2c(c1)C(=O)N([C@H](C)CO)C[C@H](C)[C@@H](CN(C)Cc1ccc(Oc3ccccc3)cc1)O2 | inactive: 0.966 |
| C[C@@H]1CN([C@H](C)CO)C(=O)Cc2cc(NS(=O)(=O)c3ccccc3)ccc2O[C@H]1CN(C)S(=O)(=O)c1cccs1 | inactive: 0.995 |
| O=C(NCc1ccc(S(=O)(=O)N2CCOCC2)s1)c1cccnc1C(=O)N1CCOCC1 | inactive: 1 |
| O=C(O)C(S)C(S)C(=O)O (stereo unspecified) | inactive: 0.664 |
| O=C(O)c1ccc[nH]1 | inactive: 1.01 |
| CCn1nc(C(=O)O)c(=O)c2cc3c(cc21)OCO3 | active: 0.0537 |
| CNC(=C[N+](=O)[O-])NCCSCc1ccc(CN(C)C)o1.Cl | inactive: 1.09 |
| COc1ccc(S(=O)(=O)N(C)C[C@@H]2Oc3ccc(NS(=O)(=O)c4ccc(C)cc4)cc3C(=O)N([C@H](C)CO)C[C@H]2C)cc1 | inactive: 1.04 |
| O=C1N(CCS(=O)(=O)c2ccccc2)Cc2ccccc2C[C@@]12COC(c1ccc(OCCCO)cc1)=N2 | inactive: 1.04 |
| C[C@@H]1CN([C@H](C)CO)C(=O)c2cc(C3=CCCC3)cnc2O[C@H]1CN(C)S(=O)(=O)c1cn(C)cn1 | inactive: 1 |
| C[C@H]1CN([C@@H](C)CO)S(=O)(=O)c2ccc(C#Cc3ccccc3)cc2O[C@H]1CN(C)S(=O)(=O)c1cn(C)cn1 | inactive: 1.03 |
| O=C(C[C@@H]1CC[C@H]2[C@@H](COC[C@@H](O)CN2C(=O)c2ccncc2)O1)NCc1ccc(-c2ccccc2)cc1 | inactive: 1.02 |
| COc1ccc2c3c(n(c2c1)C)[C@@H](CO)N(C[C@]13CCN(CC1)C(=O)CN(C)C)C(=O)C1CCCCC1 | inactive: 0.994 |
